According to paper PMC7511005:
These are yes or no findings as the source states them, for the method shown. Some results given as binding are weak or reduced against the parent protein; the word gives no strength. Tags and fused reporters may be left off the sequences shown.

Protein sequences, listed by entry. Tags and fused reporters are not part of them.
UniProt Q8N3F8: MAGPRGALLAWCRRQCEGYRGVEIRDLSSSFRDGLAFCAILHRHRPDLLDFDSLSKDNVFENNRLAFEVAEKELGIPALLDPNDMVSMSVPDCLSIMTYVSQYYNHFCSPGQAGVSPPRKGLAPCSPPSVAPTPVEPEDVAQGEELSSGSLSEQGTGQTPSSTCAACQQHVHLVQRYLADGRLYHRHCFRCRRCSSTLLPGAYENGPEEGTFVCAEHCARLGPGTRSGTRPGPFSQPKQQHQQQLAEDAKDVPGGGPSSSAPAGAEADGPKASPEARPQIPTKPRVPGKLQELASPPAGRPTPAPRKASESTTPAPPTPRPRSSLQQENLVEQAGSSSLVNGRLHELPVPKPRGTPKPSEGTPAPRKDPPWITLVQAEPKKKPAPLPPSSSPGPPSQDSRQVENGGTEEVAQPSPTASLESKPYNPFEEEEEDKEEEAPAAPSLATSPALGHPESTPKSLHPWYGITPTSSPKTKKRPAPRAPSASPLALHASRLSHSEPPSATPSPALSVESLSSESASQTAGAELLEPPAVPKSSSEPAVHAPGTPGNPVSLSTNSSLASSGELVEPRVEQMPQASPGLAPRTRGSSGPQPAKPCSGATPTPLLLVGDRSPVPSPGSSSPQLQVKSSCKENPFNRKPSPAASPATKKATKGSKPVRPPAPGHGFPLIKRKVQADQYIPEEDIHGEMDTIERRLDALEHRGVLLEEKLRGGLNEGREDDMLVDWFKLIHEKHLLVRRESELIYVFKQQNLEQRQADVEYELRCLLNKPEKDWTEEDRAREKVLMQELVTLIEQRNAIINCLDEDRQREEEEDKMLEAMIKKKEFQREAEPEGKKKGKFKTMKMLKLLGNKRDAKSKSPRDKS
UniProt Q9UNF0: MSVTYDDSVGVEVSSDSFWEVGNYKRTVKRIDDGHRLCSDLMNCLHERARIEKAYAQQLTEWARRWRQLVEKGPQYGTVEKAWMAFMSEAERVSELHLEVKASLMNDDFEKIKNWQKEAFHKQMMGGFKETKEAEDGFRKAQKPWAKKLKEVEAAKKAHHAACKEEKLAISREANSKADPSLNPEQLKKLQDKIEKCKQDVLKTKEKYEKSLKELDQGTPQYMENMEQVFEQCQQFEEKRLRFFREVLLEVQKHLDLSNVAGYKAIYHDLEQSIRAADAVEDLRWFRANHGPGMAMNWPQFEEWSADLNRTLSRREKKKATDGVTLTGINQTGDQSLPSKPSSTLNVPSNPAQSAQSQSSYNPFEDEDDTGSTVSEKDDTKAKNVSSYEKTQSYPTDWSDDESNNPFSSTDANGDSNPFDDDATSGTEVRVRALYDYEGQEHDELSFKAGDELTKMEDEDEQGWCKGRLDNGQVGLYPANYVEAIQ

Legend:
Assay in all cases: two-hybrid; AH109 yeast co-transformed with pGADT7 and pGBKT7 fusions; growth on -His plates, 30°C, 72 h
[1] = target: T1, EHD1 aa1-199, yeast two-hybrid fusion (UniProt Q9H4M9)
T1 sequence: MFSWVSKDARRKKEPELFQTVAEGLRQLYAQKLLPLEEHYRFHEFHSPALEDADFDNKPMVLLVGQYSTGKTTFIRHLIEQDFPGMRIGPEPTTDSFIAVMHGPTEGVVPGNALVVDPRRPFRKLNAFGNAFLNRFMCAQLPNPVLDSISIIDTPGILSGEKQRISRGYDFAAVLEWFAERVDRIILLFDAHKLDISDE

[2] = target: T2, EHD1 aa1-439, yeast two-hybrid fusion (UniProt Q9H4M9)
T2 sequence: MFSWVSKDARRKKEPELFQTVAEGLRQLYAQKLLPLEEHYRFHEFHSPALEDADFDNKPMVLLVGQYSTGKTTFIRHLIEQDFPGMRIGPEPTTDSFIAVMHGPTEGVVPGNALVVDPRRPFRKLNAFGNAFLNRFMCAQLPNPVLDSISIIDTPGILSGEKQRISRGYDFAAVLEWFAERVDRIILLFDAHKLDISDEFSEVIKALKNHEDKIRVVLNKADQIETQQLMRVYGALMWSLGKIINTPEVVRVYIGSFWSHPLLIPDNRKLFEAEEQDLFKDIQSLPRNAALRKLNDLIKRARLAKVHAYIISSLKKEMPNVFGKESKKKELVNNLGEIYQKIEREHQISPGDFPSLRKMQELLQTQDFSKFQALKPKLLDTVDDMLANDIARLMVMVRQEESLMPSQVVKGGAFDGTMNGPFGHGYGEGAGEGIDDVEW

[3] = target: T3, EHD1, yeast two-hybrid fusion (UniProt Q9H4M9)
T3 sequence: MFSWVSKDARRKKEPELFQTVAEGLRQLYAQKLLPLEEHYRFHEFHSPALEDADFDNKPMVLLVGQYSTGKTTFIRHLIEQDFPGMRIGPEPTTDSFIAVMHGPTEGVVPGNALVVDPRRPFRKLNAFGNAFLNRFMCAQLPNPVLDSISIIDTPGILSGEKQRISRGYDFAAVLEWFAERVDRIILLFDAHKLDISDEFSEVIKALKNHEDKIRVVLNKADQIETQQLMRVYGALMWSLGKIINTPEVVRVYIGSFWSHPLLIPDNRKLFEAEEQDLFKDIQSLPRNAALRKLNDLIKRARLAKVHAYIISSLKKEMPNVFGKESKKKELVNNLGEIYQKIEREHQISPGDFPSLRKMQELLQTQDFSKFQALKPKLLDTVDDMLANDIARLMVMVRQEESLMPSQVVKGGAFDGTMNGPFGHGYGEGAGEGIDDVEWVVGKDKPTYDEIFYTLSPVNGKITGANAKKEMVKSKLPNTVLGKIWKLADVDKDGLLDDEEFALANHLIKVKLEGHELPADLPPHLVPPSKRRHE

[4] = target: T4, EHD2, yeast two-hybrid fusion (UniProt Q9NZN4)
T4 sequence: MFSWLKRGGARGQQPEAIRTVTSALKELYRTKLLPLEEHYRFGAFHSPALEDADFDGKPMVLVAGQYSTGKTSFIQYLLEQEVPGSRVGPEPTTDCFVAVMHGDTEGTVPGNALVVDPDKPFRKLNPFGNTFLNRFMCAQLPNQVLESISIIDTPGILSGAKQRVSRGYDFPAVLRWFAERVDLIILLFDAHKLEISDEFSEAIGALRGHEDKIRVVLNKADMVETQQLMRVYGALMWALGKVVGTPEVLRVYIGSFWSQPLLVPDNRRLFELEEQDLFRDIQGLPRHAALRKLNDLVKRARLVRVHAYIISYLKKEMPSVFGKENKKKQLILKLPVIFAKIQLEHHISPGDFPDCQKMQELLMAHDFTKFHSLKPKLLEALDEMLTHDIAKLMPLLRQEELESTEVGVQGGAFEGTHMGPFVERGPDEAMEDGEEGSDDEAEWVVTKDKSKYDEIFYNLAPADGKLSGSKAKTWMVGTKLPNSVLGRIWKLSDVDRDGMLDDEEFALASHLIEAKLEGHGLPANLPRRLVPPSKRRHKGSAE

[5] = target: T5, EHD3, yeast two-hybrid fusion (UniProt Q9NZN3)
T5 sequence: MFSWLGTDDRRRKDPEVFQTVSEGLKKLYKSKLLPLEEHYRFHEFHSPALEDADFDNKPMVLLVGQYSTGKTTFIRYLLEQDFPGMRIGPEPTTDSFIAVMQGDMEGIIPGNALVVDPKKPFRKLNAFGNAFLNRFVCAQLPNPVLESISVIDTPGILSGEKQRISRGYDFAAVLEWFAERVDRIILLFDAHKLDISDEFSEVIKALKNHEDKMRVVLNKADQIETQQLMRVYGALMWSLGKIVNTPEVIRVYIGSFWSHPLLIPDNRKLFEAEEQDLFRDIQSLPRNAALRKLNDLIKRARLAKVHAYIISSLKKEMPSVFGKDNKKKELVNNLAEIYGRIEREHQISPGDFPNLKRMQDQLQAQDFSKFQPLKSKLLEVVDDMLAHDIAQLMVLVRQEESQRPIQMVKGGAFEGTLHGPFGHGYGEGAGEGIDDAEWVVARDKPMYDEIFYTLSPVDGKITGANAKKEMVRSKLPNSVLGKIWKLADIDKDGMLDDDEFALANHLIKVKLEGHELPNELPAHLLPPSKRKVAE

[6] = target: EHD4, yeast two-hybrid fusion (UniProt Q9H223)
[7] = target: MICAL-L1, yeast two-hybrid fusion (UniProt Q8N3F8)
[8] = target: Syndapin2, yeast two-hybrid fusion (UniProt Q9UNF0)

binding [1]: no binding | binding [2]: binds | binding [3]: binds | binding [4]: no binding | binding [5]: binds | binding [6]: binds weakly | binding [7]: no binding | binding [8]: binds
B1: EHD4, yeast two-hybrid fusion (protein, UniProt Q9H223 1-541)
chain: MFSWMGRQAGGRERAGGADAVQTVTGGLRSLYLRKVLPLEEAYRFHEFHSPALEDADFENKPMILLVGQYSTGKTTFIRYLLEQDFPGMRIGPEPTTDSFIAVMYGETEGSTPGNALVVDPKKPFRKLSRFGNAFLNRFMCSQLPNQVLKSISVIDSPGILSGEKQRISRGYDFCQVLQWFAERVDRIILLFDAHKLDISDEFSEAIKAFRGQDDKIRVVLNKADQVDTQQLMRVYGALMWSLGKVINTPEVLRVYIGSFWAQPLQNTDNRRLFEAEAQDLFRDIQSLPQKAAVRKLNDLIKRARLAKVHAYIISYLKKEMPSVFGKENKKRELISRLPEIYIQLQREYQISAGDFPEVKAMQEQLENYDFTKFHSLKPKLIEAVDNMLSNKISPLMNLISQEETSTPTQLVQGGAFDGTTEGPFNQGYGEGAKEGADEEEWVVAKDKPVYDELFYTLSPINGKISGVNAKKEMVTSKLPNSVLGKIWKLADCDCDGMLDEEEFALAKHLIKIKLDGYELPSSLPPHLVPPSHRKSLPKAD
